Assay results reported in PMC4336329 (PLoS ONE, 2015).
Out of some 310,000 compounds screened, about 14,000 (4.5%) showed an effect of 50% or more. The effect is printed as a negative number. The list shows a part of the results.

Biological target: human ether-à-go-go-related gene (hERG) potassium channel (human, UniProt Q12809)
Assay: primary screen, population patch clamp on CHO cells stably expressing hERG
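Also: peak tail current of the secondary pulse compared with the same well before compound.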

human ether-à-go-go-related gene (hERG) potassium channel, sequence (Q12809 whole entry, looked up): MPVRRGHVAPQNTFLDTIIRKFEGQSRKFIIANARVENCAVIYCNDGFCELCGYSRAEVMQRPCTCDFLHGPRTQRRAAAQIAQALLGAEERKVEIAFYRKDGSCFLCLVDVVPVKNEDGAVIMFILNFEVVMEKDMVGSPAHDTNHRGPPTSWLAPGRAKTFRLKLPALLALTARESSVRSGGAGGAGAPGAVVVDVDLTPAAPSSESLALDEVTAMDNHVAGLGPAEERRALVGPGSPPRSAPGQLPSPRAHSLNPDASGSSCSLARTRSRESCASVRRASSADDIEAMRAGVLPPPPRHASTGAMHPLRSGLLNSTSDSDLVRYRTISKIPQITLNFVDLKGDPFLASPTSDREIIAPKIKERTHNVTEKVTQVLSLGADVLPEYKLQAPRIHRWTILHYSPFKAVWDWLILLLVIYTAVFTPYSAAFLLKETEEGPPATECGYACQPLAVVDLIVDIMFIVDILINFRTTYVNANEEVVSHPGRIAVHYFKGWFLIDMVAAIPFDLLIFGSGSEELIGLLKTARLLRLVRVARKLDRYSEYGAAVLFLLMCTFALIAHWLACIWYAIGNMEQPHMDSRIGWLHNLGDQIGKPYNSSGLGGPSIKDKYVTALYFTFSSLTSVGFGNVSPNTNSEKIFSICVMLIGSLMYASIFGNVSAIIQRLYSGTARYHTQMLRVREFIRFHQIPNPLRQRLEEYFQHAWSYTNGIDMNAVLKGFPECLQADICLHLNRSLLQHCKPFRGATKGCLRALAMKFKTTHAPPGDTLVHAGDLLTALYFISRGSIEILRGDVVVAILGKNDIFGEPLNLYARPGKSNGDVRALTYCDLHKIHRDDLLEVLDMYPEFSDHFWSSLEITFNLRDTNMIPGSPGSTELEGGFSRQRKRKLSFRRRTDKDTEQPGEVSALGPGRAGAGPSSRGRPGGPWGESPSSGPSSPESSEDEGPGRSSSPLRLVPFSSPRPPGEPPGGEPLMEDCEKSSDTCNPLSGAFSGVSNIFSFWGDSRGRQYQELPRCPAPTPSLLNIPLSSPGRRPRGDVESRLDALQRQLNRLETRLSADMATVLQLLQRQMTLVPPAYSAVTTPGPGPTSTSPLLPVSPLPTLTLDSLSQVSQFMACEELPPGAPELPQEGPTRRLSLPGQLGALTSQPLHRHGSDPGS

Going from `O=C(NC1CCCC1)c1cc2ccccc2o1` to `O=C(CSc1ccc(F)cc1)NC1CCCCC1`, the “hERG current change (%, negative = inhibition) at 10uM” value rises from -0.288% to 15.9%.

Compared with `COc1ccc(Cl)cc1NC(=O)CN(C)C(C)C(=O)NC(=O)NC1CCCCC1` (stereo not shown), `Cc1ccc(C)c(N(CC(=O)NC2CCCC2)C(=O)c2oc(C(C)(C)C)cc2C)c1` is lower in “hERG current change (%, negative = inhibition) at 10uM” value: -2.98% for the first, -6.15% for the second.

Compared with `Cc1nc(NC(=O)CN2CCN(c3ccccc3F)CC2)sc1C(=O)N(C)C`, `CCC(=O)Nc1nc(C)c(Oc2ccccc2)c(=O)[nH]1` is lower in “hERG current change (%, negative = inhibition) at 10uM” value: 16.3% for the first, -2.65% for the second.

Going from `O=C1C=C(NCCc2ccccc2)C2(CCCCC2)O1` to `c1ccc(CCN2CN=C(Nc3nc4ccccc4s3)NC2)cc1`, the “hERG current change (%, negative = inhibition) at 10uM” value falls from 21.4% to -1.49%.

Compared with `CCOC(=O)C(C)N1C(=O)S/C(=C/c2cc(C)n(-c3ccncc3)c2C)C1=O` (stereo not shown), `CCOc1ccc(-n2nc3ccc(NC(=O)CC)cc3n2)cc1` is higher in “hERG current change (%, negative = inhibition) at 10uM” value: -18.3% for the first, 10.2% for the second.

Going from `Cc1cnn(-c2cc(N/N=C/c3cccc(F)c3)ncn2)c1` to `CC(C)CN(Cc1cc2ccccc2[nH]c1=O)C(=O)c1cccnc1`, the “hERG current change (%, negative = inhibition) at 10uM” value falls from 8.61% to -1.54%.

Going from `CSCC(=O)N1CCCC(C(=O)c2cc(F)ccc2F)C1` (stereo not shown) to `O=C(O)C1CCCN(S(=O)(=O)c2ccc(Br)s2)C1` (stereo not shown), the “hERG current change (%, negative = inhibition) at 10uM” value rises from -1.1% to -0.142%.

Going from `COc1cc(C(=O)Nc2ccc(C(=O)NCC3CCCO3)cc2)cc(OC)c1OC` (stereo not shown) to `COc1ccc(CCNC(=O)CN2CCCc3ccccc32)cc1OC`, the “hERG current change (%, negative = inhibition) at 10uM” value falls from 19.5% to 2.6%.

Compared with `O=C(NC1CC1)C1CCN(C2CCN(C(=O)Cc3ccc(F)cc3)CC2)CC1`, `COc1cc(C(=O)OC(C)C(=O)N2CCc3ccccc3C2)ccc1OCC(=O)N1CCOCC1` (stereo not shown) is lower in “hERG current change (%, negative = inhibition) at 10uM” value: -2.99% for the first, -10.1% for the second.

Going from `Cc1ccccc1/C=N/n1c(C2CCCCC2)n[nH]c1=S` to `O=C(O)C(Cc1ccccc1)NS(=O)(=O)c1ccc2c(c1)OCCO2` (stereo not shown), the “hERG current change (%, negative = inhibition) at 10uM” value falls from 19.6% to 8.3%.

Going from `CCN1C(=O)[C@@H]2[C@@H](c3ccc(-c4cccc(Cl)c4)c(OC)c3)N3CCCC[C@@]3(C(=O)OC)[C@@H]2C1=O.O=C(O)C(F)(F)F` to `COC(=O)CN1C(=O)C2(OCCCO2)c2cc(Br)ccc21`, the “hERG current change (%, negative = inhibition) at 10uM” value falls from 14.7% to 9.66%.

Going from `Oc1ccccc1C1=Nc2ccccc2N=C(c2ccco2)C1` to `COP(=O)(C#Cc1ccccc1)C(O)c1ccc(Br)cc1` (stereo not shown), the “hERG current change (%, negative = inhibition) at 10uM” value rises from -12.7% to 3.77%.

With `CC(=O)NC(=O)COC(=O)c1ccc2ncsc2c1` the “hERG current change (%, negative = inhibition) at 10uM” value was 18.5%.
